# Assay results: article PMC11995724, “Antibiotic target discovery by integrated phenotypic and activity-based profiling of electrophilic fragments” (Cell chemical biology, 2025)
# Among all 3,200 compounds or so, about 75 (2%) showed an effect of 50% or more. Some of the results follow.
# Tested on: T1, S. aureus MSSA476
# T1 construct: MSSA476
# Design: species or system S. aureus MSSA476 (TSB) or V. cholerae SAD30 (LB); 384-well bacterial growth screen at 25 uM, OD600 relative to DMSO control
# Conditions: relative growth, OD600, TSB; 25 µM; inhibitor
row,Structure (SMILES),% of control remaining [%]
1,"C=CC(=O)NCC(C)Cn1nccc1C (centres unmarked) [1-H14, N-[2-methyl-3-(5-methyl-1H-pyrazol-1-yl)propyl]prop-2-enamide]",116.396
2,"COc1ccc(NC(=O)C(C)Cl)c([N+](=O)[O-])c1 (centres unmarked) [6-B08, 2-chloro-N-(4-methoxy-2-nitrophenyl)propanamide]",102.098
3,"Cc1ccc(C)c(C=C(C#N)C(=O)NC(C)C)c1 [9-O22, 2-cyano-3-(2,5-dimethylphenyl)-N-(propan-2-yl)prop-2-enamide]",108.764
4,"C=CC(=O)NCCN1CCOCC1C (centres unmarked) [2-I05, N-[2-(3-methylmorpholin-4-yl)ethyl]prop-2-enamide]",108.268
5,"CC(Cl)C(=O)N1CCn2c(nn(CC(=O)N(C)C)c2=O)C1 (centres unmarked) [7-K17, 2-[7-(2-chloropropanoyl)-3-oxo-2H,3H,5H,6H,7H,8H-[1,2,4]triazolo[4,3-a]pyrazin-2-yl]-N,N-dimethylacetamide]",89.4819
6,"Cn1cc(C(=O)CCl)nn1 [10-M19, 2-chloro-1-(1-methyl-1H-1,2,3-triazol-4-yl)ethan-1-one]",87.5
7,"Cc1nc2n(n1)CCN(C(=O)C(C)Cl)C2 (centres unmarked) [5-A04, 2-chloro-1-{2-methyl-5H,6H,7H,8H-[1,2,4]triazolo[1,5-a]pyrazin-7-yl}propan-1-one]",114.026
8,"O=C(CCl)c1c[nH]c2ccncc12 [10-K05, 2-chloro-1-{1H-pyrrolo[3,2-c]pyridin-3-yl}ethan-1-one]",112.813
9,"O=C1C=CC(=O)N1c1cc([N+](=O)[O-])ccc1Cl [10-H15, 1-(2-chloro-5-nitrophenyl)-2,5-dihydro-1H-pyrrole-2,5-dione]",119.687
10,"COc1ccc([N+](=O)[O-])cc1NC(=O)CCl [4-P17, 2-chloro-N-(2-methoxy-5-nitrophenyl)acetamide]",109.767
11,"C=CC(=O)NC[C@@H]1C[C@H]1C1CCCCC1 [1-O19, N-{[(1R,2S)-2-cyclohexylcyclopropyl]methyl}prop-2-enamide]",104.791
12,"C=CC(=O)N1CCC(C(=O)NCc2ccc(-c3n[nH]c(C)n3)cc2)CC1 [3-M21, N-{[4-(5-methyl-1H-1,2,4-triazol-3-yl)phenyl]methyl}-1-(prop-2-enoyl)piperidine-4-carboxamide]",122.246
13,"C=CC(=O)Nc1cccc(C(O)C(F)(F)F)c1 (centres unmarked) [1-M16, N-[3-(2,2,2-trifluoro-1-hydroxyethyl)phenyl]prop-2-enamide]",129.407
14,"O=C1C=CC(=O)N1c1ccc(F)cc1F [10-F15, 1-(2,4-difluorophenyl)-2,5-dihydro-1H-pyrrole-2,5-dione]",135.938
15,"COc1cccc(NC(=O)CN(C)C(=O)CCl)c1 [5-A03, 2-chloro-N-{[(3-methoxyphenyl)carbamoyl]methyl}-N-methylacetamide]",86.7031
16,"C=CC(=O)NC[C@@H]1C[C@H](F)CN1Cc1ccnn1C [2-E05, N-{[(2S,4S)-4-fluoro-1-[(1-methyl-1H-pyrazol-5-yl)methyl]pyrrolidin-2-yl]methyl}prop-2-enamide]",90.1654
17,"N#CC1=C(N2CCOCC2)SC(c2ccc([N+](=O)[O-])cc2)NC1=O (centres unmarked) [9-D08, 6-(morpholin-4-yl)-2-(4-nitrophenyl)-4-oxo-3,4-dihydro-2H-1,3-thiazine-5-carbonitrile]",103.071
18,"CC(Cl)C(=O)N1CCCC(CNC(=O)Nc2ccc(F)cc2)C1 (centres unmarked) [6-J22, 3-{[1-(2-chloropropanoyl)piperidin-3-yl]methyl}-1-(4-fluorophenyl)urea]",93.2195
19,"C=CC(=O)N1CCC(O)(c2ccccc2)CC1 [1-E15, 1-(4-hydroxy-4-phenylpiperidin-1-yl)prop-2-en-1-one]",97.0549
20,"CC(Cl)C(=O)N1Cc2ccccc2OCC1C (centres unmarked) [7-F11, 2-chloro-1-(3-methyl-2,3,4,5-tetrahydro-1,4-benzoxazepin-4-yl)propan-1-one]",98.5871
21,"Cc1cc(C(=O)CCl)c(C)n1-c1ccc(Cl)c(Cl)c1 [10-D18, 2-chloro-1-[1-(3,4-dichlorophenyl)-2,5-dimethyl-1H-pyrrol-3-yl]ethan-1-one]",-0.3125
22,"CCCCNC(=O)C(C#N)=Cc1cc(F)ccc1F [8-K08, N-butyl-2-cyano-3-(2,5-difluorophenyl)prop-2-enamide]",71.3693
23,"C=CC(=O)Nc1ccc2c(c1)N(CC#N)CC2 [1-C19, N-[1-(cyanomethyl)-2,3-dihydro-1H-indol-6-yl]prop-2-enamide]",98.4615
24,"O=C1C=CC(=O)N1c1ccc(OC(F)F)cc1 [10-P11, 1-[4-(difluoromethoxy)phenyl]-2,5-dihydro-1H-pyrrole-2,5-dione]",110.313
25,"C=CC(=O)Nc1ccccc1C(=O)N(C)C(C)C [3-H17, N-methyl-2-(prop-2-enamido)-N-(propan-2-yl)benzamide]",126.426
26,"CC(Cl)C(=O)NC(c1ccc(F)cc1)c1cnn(C)c1 (centres unmarked) [7-C19, 2-chloro-N-[(4-fluorophenyl)(1-methyl-1H-pyrazol-4-yl)methyl]propanamide]",93.2496
27,"C=CC(=O)NCC1(c2ccccc2)CC1(F)F (centres unmarked) [2-O20, N-[(2,2-difluoro-1-phenylcyclopropyl)methyl]prop-2-enamide]",85.6397
28,"N#CC(=Cc1cnc2ccc(C#N)cn12)C(=O)Nc1ccc(F)cc1 [9-E20, 2-cyano-3-{6-cyanoimidazo[1,2-a]pyridin-3-yl}-N-(4-fluorophenyl)prop-2-enamide]",103.67
29,"Cc1cc(C(=O)CCl)c(C)n1Cc1ccc(F)cc1 [10-N17, 2-chloro-1-{1-[(4-fluorophenyl)methyl]-2,5-dimethyl-1H-pyrrol-3-yl}ethan-1-one]",4.6875
